Laboratory results: the supplement of paper PMC4967469
The IC50 comes from the fitted curve, where viability falls to half of the control; fits outside the tested doses are given as limits. For AUC the same curve is integrated over the 256-fold range of doses and scaled to a fraction: 1 means no effect, lower means more sensitive. Any top dose called inferred comes from the curve model; the source does not state it.

compound: CCn1cc(-c2ccnc3[nH]c(-c4cccc(CN(C)C)c4)cc23)c(-c2ccc(NC(=O)N(C)C)cc2)n1 [GSK1070916]; assay: Viability of human cancer cell lines after 72 h of drug (GDSC screen); conditions: top dose inferred
Protocol: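 Human cancer cell lines in 384-well plates, medium with 10% serum, drug for 72 h over a 256-fold dose range (nine 2-fold or five 4-fold steps up to the top dose). Adherent lines were fixed and stained with the nucleic acid dye Syto60, suspension lines read with resazurin; signal relative to control wells, capped at 0 and 100%. One two-parameter sigmoid per drug and line, fitted in a mixed model over all curves with the slope shared within a line.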

Point of comparison: “MZ2-MEL (melanoma, adherent, top dose 2.56 µM)”, AUC 0.94. Against it:
- MFH-ino (soft tissue, adherent, top dose 2.56 µM) — higher, 0.977
- MFM-223 (breast, adherent, top dose 2.56 µM) — lower, 0.829
- MG-63 (osteosarcoma, adherent, top dose 2.56 µM) — higher, 0.984
- MHH-ES-1 (Ewing sarcoma, adherent, top dose 2.56 µM) — lower, 0.199
- MHH-NB-11 (neuroblastoma, adherent, top dose 2.56 µM) — lower, 0.518
- MHH-PREB-1 (B-cell leukaemia, suspension, top dose 2.56 µM) — higher, 0.989
- MIA-PaCa-2 (pancreas, adherent, top dose 2.56 µM) — higher, 0.97
- MKN1 (stomach, adherent, top dose 2.56 µM) — lower, 0.824
- MKN28 (stomach, adherent, top dose 2.56 µM) — higher, 0.971
- MKN45 (stomach, adherent, top dose 2.56 µM) — lower, 0.937
- ML-1 (thyroid, adherent, top dose 2.56 µM) — lower, 0.926
- ML-2 (acute myeloid leukaemia, suspension, top dose 2.56 µM) — lower, 0.207
- MLMA (hairy cell leukaemia, semi-adherent, top dose 2.56 µM) — lower, 0.89
- MMAC-SF (melanoma, adherent, top dose 2.56 µM) — higher, 0.979
- MN-60 (B-cell leukaemia, suspension, top dose 2.56 µM) — lower, 0.939
- MOLM-13 (acute myeloid leukaemia, suspension, top dose 2.56 µM) — lower, 0.182
- MOLP-8 (myeloma, suspension, top dose 2.56 µM) — lower, 0.368
- MOLT-4 (lymphoblastic leukaemia, suspension, top dose 2.56 µM) — lower, 0.138
- MOLT-13 (T-cell lymphoblastic leukaemia, suspension, top dose 2.56 µM) — lower, 0.194
- MONO-MAC-6 (acute myeloid leukaemia, suspension, top dose 2.56 µM) — lower, 0.404
- MPP-89 (mesothelioma, adherent, top dose 2.56 µM) — higher, 0.976
- MRK-nu-1 (breast, suspension, top dose 2.56 µM) — higher, 0.99
- MS751 (cervix, adherent, top dose 2.56 µM) — higher, 0.984
- MS-1 (small cell lung carcinoma, suspension, top dose 2.56 µM) — lower, 0.884
- MSTO-211H (mesothelioma, adherent, top dose 2.56 µM) — higher, 0.988
- MZ1-PC (pancreas, adherent, top dose 2.56 µM) — lower, 0.69
- MZ7-mel (melanoma, adherent, top dose 2.56 µM) — higher, 0.967
- Mewo (melanoma, adherent, top dose 2.56 µM) — higher, 0.985
- Mo-T (hairy cell leukaemia, suspension, top dose 2.56 µM) — lower, 0.92
- NALM-6 (B-cell leukaemia, suspension, top dose 2.56 µM) — lower, 0.046
- NAMALWA (Burkitt lymphoma, suspension, top dose 2.56 µM) — lower, 0.865
- NB5 (neuroblastoma, adherent, top dose 2.56 µM) — lower, 0.86
- NB6 (neuroblastoma, adherent, top dose 2.56 µM) — lower, 0.645
- NB7 (neuroblastoma, adherent, top dose 2.56 µM) — lower, 0.84
- NB10 (neuroblastoma, adherent, top dose 2.56 µM) — lower, 0.784
- NB12 (neuroblastoma, adherent, top dose 2.56 µM) — lower, 0.833
- NB13 (neuroblastoma, adherent, top dose 2.56 µM) — higher, 0.955
- NB14 (neuroblastoma, adherent, top dose 2.56 µM) — higher, 0.949
- NB17 (neuroblastoma, adherent, top dose 2.56 µM) — higher, 0.961
- NB69 (neuroblastoma, adherent, top dose 2.56 µM) — lower, 0.746
- NB(TU)1-10 (neuroblastoma, adherent, top dose 2.56 µM) — higher, 0.993
- NB-4 (acute myeloid leukaemia, suspension, top dose 2.56 µM) — lower, 0.264
- NCC021 (kidney, adherent, top dose 2.56 µM) — higher, 0.985
- NCI-H23 (lung adenocarcinoma, adherent, top dose 2.56 µM) — higher, 0.988
- NCI-H28 (mesothelioma, adherent, top dose 2.56 µM) — higher, 0.958
- NCI-H64 (small cell lung carcinoma, suspension, top dose 2.56 µM) — higher, 0.996
- NCI-H69 (small cell lung carcinoma, suspension, top dose 2.56 µM) — lower, 0.866
- NCI-H187 (small cell lung carcinoma, suspension, top dose 2.56 µM) — lower, 0.732
- NCI-H196 (small cell lung carcinoma, adherent, top dose 2.56 µM) — lower, 0.93
- NCI-H209 (small cell lung carcinoma, suspension, top dose 2.56 µM) — lower, 0.618
- NCI-H211 (small cell lung carcinoma, adherent, top dose 2.56 µM) — lower, 0.777
- NCI-H226 (lung squamous cell carcinoma, adherent, top dose 2.56 µM) — lower, 0.937
- NCI-H292 (lung adenocarcinoma, adherent, top dose 2.56 µM) — higher, 0.955
- NCI-H322M (lung adenocarcinoma, suspension, top dose 2.56 µM) — higher, 0.956
- NCI-H345 (small cell lung carcinoma, suspension, top dose 2.56 µM) — higher, 0.99
- NCI-H358 (lung adenocarcinoma, adherent, top dose 2.56 µM) — lower, 0.862
- NCI-H441 (lung adenocarcinoma, adherent, top dose 2.56 µM) — higher, 0.981
- NCI-H446 (small cell lung carcinoma, semi-adherent, top dose 2.56 µM) — lower, 0.601
- NCI-H460 (large cell lung carcinoma, adherent, top dose 2.56 µM) — higher, 0.99
- NCI-H510A (small cell lung carcinoma, semi-adherent, top dose 2.56 µM) — lower, 0.874
- NCI-H520 (lung squamous cell carcinoma, adherent, top dose 2.56 µM) — lower, 0.86
- NCI-H522 (lung adenocarcinoma, adherent, top dose 2.56 µM) — higher, 0.973
- NCI-H524 (small cell lung carcinoma, suspension, top dose 2.56 µM) — lower, 0.057
- NCI-H526 (small cell lung carcinoma, suspension, top dose 2.56 µM) — lower, 0.867
- NCI-H596 (lung adenocarcinoma, adherent, top dose 2.56 µM) — lower, 0.924
- NCI-H630 (large intestine, adherent, top dose 2.56 µM) — higher, 0.956
- NCI-H647 (non-small cell lung carcinoma, adherent, top dose 2.56 µM) — lower, 0.803
- NCI-H650 (lung adenocarcinoma, adherent, top dose 2.56 µM) — lower, 0.938
- NCI-H661 (large cell lung carcinoma, adherent, top dose 2.56 µM) — higher, 0.948
- NCI-H716 (large intestine, suspension, top dose 2.56 µM) — lower, 0.725
- NCI-H720 (lung carcinoid, suspension, top dose 2.56 µM) — higher, 0.987
- NCI-H727 (lung carcinoid, adherent, top dose 2.56 µM) — lower, 0.918
- NCI-H747 (large intestine, adherent, top dose 2.56 µM) — lower, 0.861
- NCI-H748 (small cell lung carcinoma, suspension, top dose 2.56 µM) — lower, 0.781

Point of comparison: “NCI-H209 (small cell lung carcinoma, suspension, top dose 2.56 µM)”, IC50 347 nM. Against it:
- MFH-ino (soft tissue, adherent, top dose 2.56 µM) — higher, > 2560 nM
- MFM-223 (breast, adherent, top dose 2.56 µM) — 4.5-fold higher, 1560 nM
- MG-63 (osteosarcoma, adherent, top dose 2.56 µM) — higher, > 2560 nM
- MHH-ES-1 (Ewing sarcoma, adherent, top dose 2.56 µM) — 17-fold lower, 20.8 nM
- MHH-NB-11 (neuroblastoma, adherent, top dose 2.56 µM) — 1.9-fold lower, 180 nM
- MHH-PREB-1 (B-cell leukaemia, suspension, top dose 2.56 µM) — higher, > 2560 nM
- MIA-PaCa-2 (pancreas, adherent, top dose 2.56 µM) — higher, > 2560 nM
- MKN1 (stomach, adherent, top dose 2.56 µM) — 4.7-fold higher, 1640 nM
- MKN28 (stomach, adherent, top dose 2.56 µM) — higher, > 2560 nM
- MKN45 (stomach, adherent, top dose 2.56 µM) — higher, > 2560 nM
- ML-1 (thyroid, adherent, top dose 2.56 µM) — higher, > 2560 nM
- ML-2 (acute myeloid leukaemia, suspension, top dose 2.56 µM) — 14-fold lower, 25 nM
- MLMA (hairy cell leukaemia, semi-adherent, top dose 2.56 µM) — higher, > 2560 nM
- MMAC-SF (melanoma, adherent, top dose 2.56 µM) — higher, > 2560 nM
- MN-60 (B-cell leukaemia, suspension, top dose 2.56 µM) — higher, > 2560 nM
- MOLM-13 (acute myeloid leukaemia, suspension, top dose 2.56 µM) — 18-fold lower, 19.2 nM
- MOLP-8 (myeloma, suspension, top dose 2.56 µM) — 4.9-fold lower, 70.3 nM
- MOLT-4 (lymphoblastic leukaemia, suspension, top dose 2.56 µM) — 21-fold lower, 16.4 nM
- MOLT-13 (T-cell lymphoblastic leukaemia, suspension, top dose 2.56 µM) — 15-fold lower, 22.9 nM
- MONO-MAC-6 (acute myeloid leukaemia, suspension, top dose 2.56 µM) — 4-fold lower, 86 nM
- MPP-89 (mesothelioma, adherent, top dose 2.56 µM) — higher, > 2560 nM
- MRK-nu-1 (breast, suspension, top dose 2.56 µM) — higher, > 2560 nM
- MS751 (cervix, adherent, top dose 2.56 µM) — higher, > 2560 nM
- MS-1 (small cell lung carcinoma, suspension, top dose 2.56 µM) — 6.5-fold higher, 2260 nM
- MSTO-211H (mesothelioma, adherent, top dose 2.56 µM) — higher, > 2560 nM
- MZ1-PC (pancreas, adherent, top dose 2.56 µM) — 1.8-fold higher, 627 nM
- MZ2-MEL (melanoma, adherent, top dose 2.56 µM) — higher, > 2560 nM
- MZ7-mel (melanoma, adherent, top dose 2.56 µM) — higher, > 2560 nM
- Mewo (melanoma, adherent, top dose 2.56 µM) — higher, > 2560 nM
- Mo-T (hairy cell leukaemia, suspension, top dose 2.56 µM) — higher, > 2560 nM
- NALM-6 (B-cell leukaemia, suspension, top dose 2.56 µM) — lower, < 10 nM
- NAMALWA (Burkitt lymphoma, suspension, top dose 2.56 µM) — 4.9-fold higher, 1700 nM
- NB5 (neuroblastoma, adherent, top dose 2.56 µM) — 6.3-fold higher, 2180 nM
- NB6 (neuroblastoma, adherent, top dose 2.56 µM) — within 1.5-fold, 446 nM
- NB7 (neuroblastoma, adherent, top dose 2.56 µM) — 5.4-fold higher, 1880 nM
- NB10 (neuroblastoma, adherent, top dose 2.56 µM) — 3.1-fold higher, 1060 nM
- NB12 (neuroblastoma, adherent, top dose 2.56 µM) — 7.2-fold higher, 2510 nM
- NB13 (neuroblastoma, adherent, top dose 2.56 µM) — higher, > 2560 nM
- NB14 (neuroblastoma, adherent, top dose 2.56 µM) — higher, > 2560 nM
- NB17 (neuroblastoma, adherent, top dose 2.56 µM) — higher, > 2560 nM
- NB69 (neuroblastoma, adherent, top dose 2.56 µM) — 2.1-fold higher, 736 nM
- NB(TU)1-10 (neuroblastoma, adherent, top dose 2.56 µM) — higher, > 2560 nM
- NB-4 (acute myeloid leukaemia, suspension, top dose 2.56 µM) — 8.7-fold lower, 39.7 nM
- NCC021 (kidney, adherent, top dose 2.56 µM) — higher, > 2560 nM
- NCI-H23 (lung adenocarcinoma, adherent, top dose 2.56 µM) — higher, > 2560 nM
- NCI-H28 (mesothelioma, adherent, top dose 2.56 µM) — higher, > 2560 nM
- NCI-H64 (small cell lung carcinoma, suspension, top dose 2.56 µM) — higher, > 2560 nM
- NCI-H69 (small cell lung carcinoma, suspension, top dose 2.56 µM) — higher, > 2560 nM
- NCI-H187 (small cell lung carcinoma, suspension, top dose 2.56 µM) — 2.3-fold higher, 785 nM
- NCI-H196 (small cell lung carcinoma, adherent, top dose 2.56 µM) — higher, > 2560 nM
- NCI-H211 (small cell lung carcinoma, adherent, top dose 2.56 µM) — 2.9-fold higher, 996 nM
- NCI-H226 (lung squamous cell carcinoma, adherent, top dose 2.56 µM) — higher, > 2560 nM
- NCI-H292 (lung adenocarcinoma, adherent, top dose 2.56 µM) — higher, > 2560 nM
- NCI-H322M (lung adenocarcinoma, suspension, top dose 2.56 µM) — higher, > 2560 nM
- NCI-H345 (small cell lung carcinoma, suspension, top dose 2.56 µM) — higher, > 2560 nM
- NCI-H358 (lung adenocarcinoma, adherent, top dose 2.56 µM) — higher, > 2560 nM
- NCI-H441 (lung adenocarcinoma, adherent, top dose 2.56 µM) — higher, > 2560 nM
- NCI-H446 (small cell lung carcinoma, semi-adherent, top dose 2.56 µM) — within 1.5-fold, 309 nM
- NCI-H460 (large cell lung carcinoma, adherent, top dose 2.56 µM) — higher, > 2560 nM
- NCI-H510A (small cell lung carcinoma, semi-adherent, top dose 2.56 µM) — 6.2-fold higher, 2140 nM
- NCI-H520 (lung squamous cell carcinoma, adherent, top dose 2.56 µM) — 6.5-fold higher, 2250 nM
- NCI-H522 (lung adenocarcinoma, adherent, top dose 2.56 µM) — higher, > 2560 nM
- NCI-H524 (small cell lung carcinoma, suspension, top dose 2.56 µM) — lower, < 10 nM
- NCI-H526 (small cell lung carcinoma, suspension, top dose 2.56 µM) — 6.2-fold higher, 2140 nM
- NCI-H596 (lung adenocarcinoma, adherent, top dose 2.56 µM) — higher, > 2560 nM
- NCI-H630 (large intestine, adherent, top dose 2.56 µM) — higher, > 2560 nM
- NCI-H647 (non-small cell lung carcinoma, adherent, top dose 2.56 µM) — 3.9-fold higher, 1350 nM
- NCI-H650 (lung adenocarcinoma, adherent, top dose 2.56 µM) — higher, > 2560 nM
- NCI-H661 (large cell lung carcinoma, adherent, top dose 2.56 µM) — higher, > 2560 nM
- NCI-H716 (large intestine, suspension, top dose 2.56 µM) — 2.4-fold higher, 834 nM
- NCI-H720 (lung carcinoid, suspension, top dose 2.56 µM) — higher, > 2560 nM
- NCI-H727 (lung carcinoid, adherent, top dose 2.56 µM) — higher, > 2560 nM
- NCI-H747 (large intestine, adherent, top dose 2.56 µM) — higher, > 2560 nM
- NCI-H748 (small cell lung carcinoma, suspension, top dose 2.56 µM) — 4-fold higher, 1380 nM
